Experimental data: a collection of fitness landscapes (doi:10.1016/j.celrep.2020.107928)
The full ranking holds about 81,000 sequences; the median of “one-hybrid fitness for binding NBS DNA” is about -0.1, and the highest 2% start at about 0.36. The list shows a part of the results.

B1: Caulobacter ParB omega fusion; a variant is named by its letters at X, in order, B8GW30 (parent)
chain: MESVVVGEPGMSEGRRGLGRGLSALLGEVDAAPAQAPGEQLGGSREAPIEILQRNPDQPRRTFREEDLEDLSNSIREKGVLQPILVRPSPDTAGEYQIVAGERAWRAAQRAGLKTVPIMVRELDDLAVLEIGIIENVQRADLNVLEEALSYKVLMEKFERTQENIAQTIGKSXSHVANXMRLLXLPDEVQSYLVSGELTAXHARAIAAAADPVALAKQIIEGGLSVRETEALARKAPNLSAGKSKGGRPPRVKDTDTQALESDLSSVLGLDVSIDHRGSTGTLTITYATLEQLDDLCNRLTRGI

Variants of: B1
Assay: one-hybrid fitness for binding NBS DNA (the Noc-binding site; scaled: cognate 1, non-cognate 0); higher = stronger binding
Conditions: with NBS DNA site
Summary of the method: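 Selection: bacterial one-hybrid in E. coli USO, HIS3 reporter with the site 19 bp from the promoter, 48 hours at 37°C on M9-minus-histidine plus 0.1 mM IPTG and 5 mM 3-AT. Libraries were Caulobacter ParB with four randomised specificity codons, sequenced on Illumina before and after selection. Fitness is the rescaled log change in variant-to-wild-type read ratio, anchored to the cognate and non-cognate sites.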

one-hybrid fitness for binding NBS DNA, 0.451:
IRNT

one-hybrid fitness for binding NBS DNA, 0.744:
QTKH

one-hybrid fitness for binding NBS DNA, 0.332:
QKDS

one-hybrid fitness for binding NBS DNA, 0.257:
RKAC

one-hybrid fitness for binding NBS DNA, 0.487:
RQTT

one-hybrid fitness for binding NBS DNA, 0.348:
KKST

one-hybrid fitness for binding NBS DNA, 0.435:
QQAS

one-hybrid fitness for binding NBS DNA, ≤ 0.2:
PDIS
RWVG
PMHV
PAYS
DVLW
VHWV
REGN
LTGE
YICC
DPNL
DASC
HVRT
GIAW
EALF
GQIG
HHWS
QKHI
RAGV
QYTN
PFDP
DRAT
SMPN
MPWI
RQNW
WKND
NLAY
LGTL
SPAI
GVTR
KVST
VCWT
HNWR
AIVG
QLCY
QIPQ
RAFP
KRDW
TKFN
ANAG
QHQW
EMKT
KLST
PPLS
TMAS
TSKY
HCGS
SHNE
WLLS
NDSN
VSNM
DWMG
PIMG
EYHK
FHTW
AQAM
GRAP
AGAV
VYWR
ANNV
VERG
KNTD
IVKY
NADF
AFPG
GDDG
QNVE
VQLG
LQTC
VKNE
THGS
LERR
RQHM
TSVD
PFNG
PFRF
KGVG
HQNR
PTIL
PYNT
EGCR
VLVK
SRAK
CEWR
INAV
RRQL
VWYG
YSAK
ASLL
KFMF
CKRY
MEVA
PRTV
LNTY
SLQT
AIQS
LYPY
HECR
ALRF
AVSI
LLLF
FFPC
GYIT
LLQH
IEHV
LATC
KRVE
QDMR
HTNL
AESW
PPRI
KIIR
SAIE
HVVT
HTGT
MELC
CETT
LYIR
WNRS
PAIP
PIHW
RKPV
TSTN
VANP
NPMV
AGYW
RGLV
SNDL
SAKC
NMPF
RGFT
LTSC
KYSS
TPPY
GYPY
PNKW
SVYS
LEMF
ASFL
LDDD
FSFV
VLNT
MGLW
GLQD
GAKV
TWIR
VNPV
IMST
DGHC
SRDT
KCLV
RSMK
LQHG
NDHG
TPIC
LQRL
STCT
RYAF
RLSF
DGKS
CGSK
MQNW
QQDG
NFVA
VEVS
TLQL
EPRM
VKHI
TAKM
VHVA
DRRT
RWTK
YRCS
TDTR
DESL
DEPV
MRKV
YSQQ
GAVI
CVPI
KSLN
NGKK
QFTG
ESIS
IRNV
QQYN
HTAP
YHAT

one-hybrid fitness for binding NBS DNA, 0.377:
QRKD
